Experimental data as given in PubChem BioAssay AID504332 (National Center for Advancing Translational Sciences (NCATS), 2011).
Values joined by “and” are separate entries in the source; they are usually repeats but may differ in a detail not shown here. Equal entries are not always repeated. Hit rate of the full screen: of about 350,000 compounds, about 31,000 (8.9%) were called active. Inconclusive results, whose numbers are uncertain, are shown with a selection of clear calls. Calls come from the whole dose curve; as a rule, active = well fitted inhibition curve with a large enough effect; inconclusive = small, poorly fitted or top-dose-only effect; inactive = no such curve, though single readings can be large or run the other way. A potency beside an inconclusive call is a rough fit, not a confirmed value.

The compounds below were run against Histone-lysine N-methyltransferase EHMT2 (Homo sapiens) (UniProt Q96KQ7) (assay: qHTS Assay for Inhibitors of Histone Lysine Methyltransferase G9a). Conditions: G9a H3K9 monomethylation, AlphaScreen, 2 h; activity, negative = inhibition: at 59 µM (top of the series) unless noted.
Chain of UniProt Q96KQ7 (Q96KQ7 whole entry, looked up): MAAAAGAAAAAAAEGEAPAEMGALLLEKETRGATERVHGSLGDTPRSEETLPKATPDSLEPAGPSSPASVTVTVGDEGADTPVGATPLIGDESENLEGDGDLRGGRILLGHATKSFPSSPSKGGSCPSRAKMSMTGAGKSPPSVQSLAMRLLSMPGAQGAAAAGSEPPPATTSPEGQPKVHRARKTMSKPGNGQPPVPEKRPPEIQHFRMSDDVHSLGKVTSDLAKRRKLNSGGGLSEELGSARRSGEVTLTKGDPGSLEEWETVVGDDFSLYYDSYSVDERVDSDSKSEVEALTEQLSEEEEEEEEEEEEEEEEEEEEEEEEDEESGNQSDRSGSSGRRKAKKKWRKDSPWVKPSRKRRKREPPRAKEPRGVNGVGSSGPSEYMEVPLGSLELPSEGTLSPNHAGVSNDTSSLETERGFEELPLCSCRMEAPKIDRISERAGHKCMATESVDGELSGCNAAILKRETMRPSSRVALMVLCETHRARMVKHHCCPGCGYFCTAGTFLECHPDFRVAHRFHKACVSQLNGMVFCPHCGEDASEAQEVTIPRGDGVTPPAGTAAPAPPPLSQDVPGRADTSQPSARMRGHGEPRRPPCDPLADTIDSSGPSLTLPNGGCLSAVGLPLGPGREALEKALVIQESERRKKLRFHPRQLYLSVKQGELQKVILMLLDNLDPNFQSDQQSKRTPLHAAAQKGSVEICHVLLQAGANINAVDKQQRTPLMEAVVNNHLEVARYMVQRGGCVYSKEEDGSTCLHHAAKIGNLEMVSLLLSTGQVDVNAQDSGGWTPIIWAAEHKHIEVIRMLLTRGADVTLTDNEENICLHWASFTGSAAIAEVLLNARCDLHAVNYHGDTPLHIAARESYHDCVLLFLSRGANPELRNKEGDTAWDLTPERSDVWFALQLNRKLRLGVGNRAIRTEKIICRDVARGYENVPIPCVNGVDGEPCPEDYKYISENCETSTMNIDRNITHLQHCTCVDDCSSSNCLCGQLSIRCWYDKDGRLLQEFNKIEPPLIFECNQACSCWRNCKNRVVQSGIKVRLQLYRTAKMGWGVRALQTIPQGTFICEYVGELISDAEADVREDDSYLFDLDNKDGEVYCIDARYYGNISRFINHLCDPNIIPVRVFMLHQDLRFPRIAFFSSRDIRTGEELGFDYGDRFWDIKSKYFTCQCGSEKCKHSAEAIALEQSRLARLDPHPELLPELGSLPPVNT
Method in brief: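 Enzyme 20 nM + cpd, 15 min RT; add b-H3K9 pep 500 nM / SAM 20 uM; 2 h RT; anti-H3K9me1 Ab 0.5 ug/mL + SA donor / anti-rabbit acceptor beads 20 ug/mL each, 10 min; AlphaScreen read.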
% is set by controls: 0 for no effect and ±100 for the full control effect; potency is the fitted concentration of half-maximal effect; tags give direction and shape of the fitted curve.
Note: nearly all actives have a fitted effect of over 75% in size.

Row | Structure (SMILES) | activity, negative = inhibition | Potency
1 | COc1ccc(CC(=O)Nc2nn(C)c3nc4c(C)cccc4cc23)cc1 | inactive: -23.4% [at 102 µM] | –
2 | CN(C)c1ccc(NC(=O)CSc2nc(N)c(C(=O)Nc3ccc(N(C)C)cc3)s2)cc1 | – | inconclusive: 3.55 µM [inhibitor, single point]
3 | O=C(CO/N=C/c1ccc2c(c1)OCO2)Nc1cccc(Br)c1 | inactive: 3.75% | –
4 | COc1ccc(N(CCN2C(=O)c3ccccc3C2=O)C(=O)c2cccc([N+](=O)[O-])c2)cc1 | – | inconclusive: 63.1 µM [inhibitor, partial curve, poor fit]
5 | COc1cccc(N2CCN(C(=O)c3cc4ccc(OC)cc4[nH]3)CC2)c1 | – | inconclusive: 89.1 µM [inhibitor, single point]
6 | O=C(CSc1nc2ccccc2n1Cc1ccccc1)N1CCN(c2ccc(F)cc2)CC1 | inactive: -0.603% | –
7 | CC(C)(C)C(=O)/C(=C\c1ccc([N+](=O)[O-])cc1)n1cncn1 | – | inconclusive: 28.2 µM [inhibitor, single point]
8 | COc1ccc(-n2cc(C(=O)NCc3ccccc3)c3ccccc3c2=O)cc1 | – | inconclusive: 25.1 µM [inhibitor, single point]
9 | O=C(NC1CC1)C1CC(=O)N(c2cccc(Cl)c2)C1 (stereo not given) | – | active: 25.1 µM
10 | CCCn1c(N2CCN(C(=O)N3CCCCC3)CC2)nc2ccccc21 | – | active: 50.1 µM
11 | CN(C)c1ccc(CNC(=O)CCS(=O)(=O)c2ccc3c(c2)oc(=O)n3C)cc1 | – | inconclusive: 10 µM [inhibitor, partial curve] and inconclusive: 89.1 µM [inhibitor, single point]
12 | CCCCN1C(C(=O)c2ccccc2)=C(OC(C)=O)c2ccccc2S1(=O)=O | – | inconclusive: 11.2 µM [inhibitor, partial curve, poor fit]
13 | CSc1ncc(CN2CCN(C3CCN(C(C)C)CC3)C(CCO)C2)cn1 (stereo not given) | – | inconclusive: 89.1 µM [inhibitor, partial curve, poor fit]
14 | Cc1cc(C)nc(SCCC(=O)N2CCOCC2)n1 | – | inconclusive: 39.8 µM [inhibitor, single point]
15 | COc1ccc(NC(=O)c2c(NC(=O)CCC(=O)O)sc(-c3ccccc3)c2C)cc1 | – | active: 5.62 µM
16 | CN1C(=O)/C(=C2\SC(=S)N(C(CCC(=O)O)C(=O)O)C2=O)c2ccccc21 (stereo not given) | inconclusive: -57.8% [inhibitor] | –
17 | O=C(O)c1cccc(S(=O)(=O)N2CCN(C(c3ccccc3)c3ccccc3)CC2)c1 | – | active: 35.5 µM
18 | COC(=O)Cc1c(C)nc2nc[nH]n2c1=O | – | inconclusive: 50.1 µM [inhibitor, partial curve, poor fit]
19 | O=C1c2ccccc2NC(c2cn[nH]c2-c2ccc(Cl)cc2)N1O (stereo not given) | – | active: 28.2 µM
20 | COc1ccccc1NC(=O)CCC(=O)N(Cc1ccc(OC)c(OC)c1)c1nccs1 | – | inconclusive: 100 µM [inhibitor, single point]
21 | CCC(=O)NCCc1nc2ccccc2n1CC(=O)c1ccccc1 | – | inconclusive: 89.1 µM [inhibitor, single point]
22 | N#CCOC(=O)[C@H](Cc1c[nH]c2ccccc12)NS(=O)(=O)c1ccc(Cl)cc1 | – | inconclusive: 89.1 µM [inhibitor, single point]
23 | Cc1c(C(=O)NCc2ccco2)sc2nc(-c3ccccc3)cn12 | – | inconclusive: 50.1 µM [inhibitor, partial curve]
24 | Nc1nc(Nc2ccccc2)nc2c1ncn2[C@@H]1O[C@H](CO)[C@H](O)[C@H]1O | inactive: 13.4% [at 12.7 µM] | –

Row | Structure (SMILES) | activity, negative = inhibition | Potency
25 | CN(C)c1ccc(CNn2cnnc2)cc1 | inconclusive: -57.8% [inhibitor] | –
26 | Cc1cc(NS(=O)(=O)c2ccccc2)cc(Cl)c1O | – | active: 2.24 µM
27 | Cc1cc(S(=O)(=O)NCC(C)C)ccc1OCC(=O)NCc1ccccn1 | – | inconclusive: 22.4 µM [inhibitor, partial curve, poor fit]
28 | COc1ccc(C(=O)NC(=S)NCc2ccco2)cc1Br | – | inconclusive: 44.7 µM [inhibitor, single point]
29 | Cc1ccc(/C=C/C(=O)NC(=S)N2CCN(C)CC2)cc1 | – | inconclusive: 39.8 µM [inhibitor, single point]
30 | O=C(NC(=S)Nc1ccccc1N1CCOCC1)c1ccc(-c2ccccc2F)o1 | – | inconclusive: 39.8 µM [inhibitor, full curve]
31 | COC(=O)c1cc2c(cc1N)OCCO2 | – | active: 56.2 µM
32 | CCCCN(CCCC)C1=C(C(=O)c2ccccc2)N(C)S(=O)(=O)c2ccccc21 | – | inconclusive: 3.16 µM [inhibitor, full curve, poor fit]
33 | CC12CCC(=O)N1C(C(=O)Nc1ccc(Br)cc1Cl)CS2 (stereo not given) | inactive: -3.01% [at 102 µM] | –
34 | O=C(C(Cc1ccccc1)n1cccc1)N1CCN(Cc2ccccc2)CC1 (stereo not given) | – | active: 31.6 µM
35 | CCOC(=O)c1c(NC(=O)c2cccs2)sc2c1CCN(C(=O)OCC)C2 | inactive: -48.5% | –
36 | CCOC(=O)c1c[nH]c2c(C)ccc(Cl)c2c1=O | inactive: 5.73% [at 102 µM] | –
37 | COc1ccccc1NC(=O)Cn1nnc2sc3c(c2c1=O)CC(C)(C)OC3 | inconclusive: -76.2% [inhibitor] [at 12.7 µM] | –
38 | Cc1cc(NC(=O)c2ccc(NC(=O)C3CCCO3)cc2)ccc1Br (stereo not given) | inactive: 2.81% [at 102 µM] | –
39 | COc1ccccc1/C=C/c1nc(C#N)c(NCCc2ccccc2)o1 | – | inconclusive: 8.91 µM [inhibitor, partial curve, poor fit]
40 | CCN(CC)CCNC(=O)c1ccc(NC(=O)c2cc(S(=O)(=O)N3CCCCC3)ccc2C)cc1 | – | inconclusive: 79.4 µM [inhibitor, single point]
41 | Cc1ccc(CNC(=O)C2=CCN(S(=O)(=O)c3ccc(C)cc3)CC2)cc1 | – | active: 31.6 µM
42 | OCC(O)[C@@H](O[C@H]1O[C@H](CO)[C@@H](O)[C@H](O)[C@H]1O)[C@H](O)[C@@H](O)CO (stereo not given in full) | inactive: 11.5% | –
43 | CCOc1ccc(C(=O)NCC(=O)N2CCCC2)cc1 | – | inconclusive: 79.4 µM [inhibitor, partial curve, poor fit]
44 | O=C(Nc1ccccn1)c1nc(-c2ccccc2)n(-c2ccccc2)n1 | – | inconclusive: 20 µM [inhibitor, partial curve, poor fit]
45 | CCOC(=O)c1ccc(NC(=O)c2nc[nH]c2C(=O)N(C)Cc2ccccc2)cc1 | inactive: -22.3% [at 12.7 µM] | –
46 | Cc1ccc(C)c(C(=O)CN2C(=O)NC3(CCCCCC3)C2=O)c1 | inactive: -4.33% [at 102 µM] | –
47 | CCOc1ccc(NCc2cccn2-c2nnc(N3CCC(C(=O)NCCOC)CC3)s2)cc1 | – | inconclusive: 39.8 µM [inhibitor, partial curve, poor fit]
48 | O=C(CNC(=O)c1cccc(OC(F)F)c1)OCc1cc(=O)n2cc(Br)ccc2n1 | inactive: 15% | –

Row | Structure (SMILES) | activity, negative = inhibition | Potency
49 | C=C(C)Cn1c(=O)c2c(nc3n2CCN3c2ccc(F)cc2)n(C)c1=O | – | inconclusive: 7.94 µM [inhibitor, partial curve, poor fit]
50 | CCCc1ccc(OC(=O)c2ccc(O)cc2Cl)cc1 | inactive: 41.5% [at 102 µM] | –
51 | c1ccc(CN2CCN(c3ncccn3)CC2)cc1 | – | active: 25.1 µM
52 | CCOC(=O)CCSc1nnc(-c2cccnc2)n1-c1ccccc1OC | inactive: 2.95% [at 12.7 µM] | –
53 | COc1ccc(CC(=O)NCc2n[nH]c(=S)n2-c2cccc(C)c2)cc1 | – | active: 11.2 µM
54 | COc1ccccc1NC(=O)CSc1ccc(-c2cccs2)nn1 | – | inconclusive: 70.8 µM [inhibitor, partial curve, poor fit]
55 | COC(=O)c1[nH]c(=O)c2ccccc2c1O | – | inconclusive: 39.8 µM [inhibitor, single point]
56 | Cc1ccc(CN2CCN(/N=C/c3ccc(C(=O)O)cc3)CC2)c(C)c1 | – | inconclusive: 50.1 µM [inhibitor, partial curve, poor fit]
57 | CCOc1ccc(N(CC)S(=O)(=O)N2CCCC(C(=O)Nc3cc(Cl)ccc3OC)C2)cc1 (stereo not given) | inactive: -0.439% | –
58 | CCc1nc2cc3sc(CC)nc3cc2s1 | – | inconclusive: 89.1 µM [inhibitor, single point]
59 | Cc1cccc(OCCn2c(SCC(=O)O)nc3ccccc32)c1 | – | inconclusive: 20 µM [inhibitor, partial curve, poor fit]
60 | COc1ccc(C)cc1N(C)C(=O)c1c2c(nc3ccccc13)C(=O)N(C1CCCCC1)C2 | inactive: 14.9% | –
61 | CCN(CC(=O)Nc1ccc(NC(C)=O)cc1)C(=O)c1ccccc1SCc1c(C)noc1C | – | active: 39.8 µM
62 | Cc1ccnc(Nc2nc(-c3ccc(O)cc3)cs2)c1 | – | inconclusive: 79.4 µM [inhibitor, single point]
63 | CCN(CC)CCNC(=O)c1c(C)[nH]c(/C=C2\C(=O)Nc3ccc(F)cc32)c1C | – | inconclusive: 17.8 µM [inhibitor, single point]
64 | Cc1nn(-c2ccc(F)cc2)c2nc(N)c(C#N)c(-c3ccc(O)c(O)c3)c12 | – | inconclusive: 89.1 µM [inhibitor, single point]
65 | COc1ccc(-c2c3c(=O)n(C)c(=O)n(C)c3cn2-c2cc(OC)ccc2OC)cc1 | – | active: 44.7 µM
66 | Cc1ccc(-c2noc(CCC(=O)NCCN3CCc4ccccc4C3)n2)cc1 | – | inconclusive: 89.1 µM [inhibitor, single point]
67 | CC(C)(Oc1ccc(Cl)cc1)C(=O)NNC(=O)c1ccc(Br)o1 | inactive: 12.5% [at 102 µM] | –
68 | CCOC(=O)c1ccc(NC2SC(=O)N(Cc3cccc(C(=O)O)c3)C2=O)cc1 (stereo not given) | – | active: 2.82 µM
69 | CC1CC(C)(C)NC(=S)N1CCCC(=O)N1CCN(c2ccc(F)cc2)CC1 (stereo not given) | inactive: -13% | –
70 | Cc1cc(C)nc(OC(C(=O)O)C(OCCC(C)C)(c2ccccc2)c2ccccc2)n1 (stereo not given) | inactive: 3.99% [at 102 µM] | –
